Reference: patent CN115028726A (ZHEJIANG TERUISI PHARMACEUTICAL INC, dated 2022)

Target: T1, 人PD-1蛋白(Acro PD1-HB2F2) (human, UniProt Q15116 in part, limits assumed)
T1 construct: Commercial recombinant human PD-1 protein coated on the ELISA plate; also called 抗原PD-1蛋白; human PD-1
Assay: ELISA, human PD-1 protein coated at 20 ng/mL, antibody titrated from 1000 ng/mL

T1 sequence (Q15116 25-167 limits assumed): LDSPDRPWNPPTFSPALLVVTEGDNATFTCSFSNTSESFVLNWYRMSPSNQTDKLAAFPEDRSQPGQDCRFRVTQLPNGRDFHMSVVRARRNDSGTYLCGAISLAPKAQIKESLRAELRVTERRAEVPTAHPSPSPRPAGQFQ

EC50 [µg/mL]	Binder
0.0153	优化纳米抗体N12 (Fc fusion) QVQLQESGGGLVQPGGSLRLSSAASGSTYLRFSMGWFRQVPGKGLEGVAAIGGDGRTSYADSVKGRFTISKDNSKNTLYLDMNSLRAEDTAVYYSAAAVLLDGSFSLLAPLVPYKYDYWGQGTLVTVSS[human IgG4 Fc with S228P (EU numbers) left out here]
0.0199	优化纳米抗体N13 (Fc fusion) QVQLQESGGGLVQPGGSLRLSAAASGSTYLRFSMGWFRQVPGKGLEGVAAIGGDGRTSYADSVKGRFTISKDNSKNTLYLDMNSLRAEDTAVYYAAAAVLLDGSFSLLAPLVPYKYDYWGQGTLVTVS[human IgG4 Fc with S228P (EU numbers) and a few adjoining residues left out here]
